Experimental data reported in PubChem BioAssay AID887 (National Center for Advancing Translational Sciences (NCATS), 2007).
About 1,100 (1.5%) of roughly 74,000 compounds were called active. Inconclusive results, whose numbers are uncertain, are shown with a selection of clear calls. The call rests on the fitted dose curve; in most records, active means well fitted inhibition curve with a large enough effect; inconclusive means small, poorly fitted or top-dose-only effect; inactive means no such curve, though single readings can be large or run the other way. Potencies of inconclusive entries are left out as doubtful fits.

Biological target: Polyunsaturated fatty acid lipoxygenase ALOX15 (Homo sapiens) (UniProt P16050)
Test: qHTS Assay for Inhibitors of 15-hLO (15-human lipoxygenase); further: nearly all actives have a fitted effect of over 55% in size
Details: purified 15hLO-1, xylenol orange hydroperoxide absorbance; activity change, negative = inhibition: at 57.1 µM (top of the series) unless noted
In short: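 Purified human 15hLO-1 (40 nM) in 25 mM Hepes pH 7.5, 0.01% Triton X-100, preincubated 15 min RT with compound, then 50 uM arachidonic acid for 6 min. Hydroperoxide read by ferrous/xylenol orange, 30 min; 573/405 nm absorbance ratio gave progress.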
On the % scale 0 is the no-effect control and ±100 the full control effect; potency means the concentration at half of the fitted maximal effect; tags describe the fitted curve by direction and shape.

Sequence of UniProt P16050 (P16050 whole entry, looked up): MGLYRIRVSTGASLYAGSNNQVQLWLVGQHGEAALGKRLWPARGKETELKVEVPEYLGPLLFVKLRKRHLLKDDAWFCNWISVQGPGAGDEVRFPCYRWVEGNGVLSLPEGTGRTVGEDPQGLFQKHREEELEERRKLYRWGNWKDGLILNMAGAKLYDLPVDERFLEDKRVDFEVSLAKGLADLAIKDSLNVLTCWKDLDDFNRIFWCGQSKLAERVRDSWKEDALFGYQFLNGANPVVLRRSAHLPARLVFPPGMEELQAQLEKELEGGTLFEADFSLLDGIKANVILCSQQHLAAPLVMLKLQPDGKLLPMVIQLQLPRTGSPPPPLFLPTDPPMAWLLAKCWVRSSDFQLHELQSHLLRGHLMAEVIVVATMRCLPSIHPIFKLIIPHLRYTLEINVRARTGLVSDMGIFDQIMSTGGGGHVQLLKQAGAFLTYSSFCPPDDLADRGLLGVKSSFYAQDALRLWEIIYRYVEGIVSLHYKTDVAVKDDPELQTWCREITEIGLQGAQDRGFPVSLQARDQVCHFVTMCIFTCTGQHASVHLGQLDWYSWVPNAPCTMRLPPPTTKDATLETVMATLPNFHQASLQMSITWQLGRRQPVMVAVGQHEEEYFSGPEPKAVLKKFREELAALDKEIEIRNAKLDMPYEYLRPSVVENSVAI

SMILES | Potency | activity change, negative = inhibition
CCOC(=O)c1ccc(N2CSC3=C(C#N)C(c4cccs4)CC(=O)N3C2)cc1 (configuration not stated) | active: 12.6 µM | 
CN(C)Cc1ccccc1-c1cncnc1NCc1ccccc1 | inconclusive [inhibitor, single point] | 
Oc1ccc(CN2CCCc3ccccc32)c2cccnc12 |  | inactive: -8.03%
Cc1cnc(C(=O)OCC(=O)Nc2oc(-c3ccccc3)c(-c3ccccc3)c2C#N)cn1 | inconclusive [inhibitor, single point] | 
COc1ccc(-c2[nH]nc3c2C(c2ccc(OC(=O)N4CCOCC4)cc2)C(C#N)=C(N)O3)cc1 (configuration not stated) | inconclusive [inhibitor, single point] | 
Cc1cc2oc3c(c(=O)c2cc1C)C(c1ccc(C(C)C)cc1)N(CCCN1CCOCC1)C3=O (configuration not stated) | inconclusive [inhibitor, partial curve] | 
CC(=O)C(C(C)=O)c1c(Cl)c(O)c(O)c2c(C(=O)c3ccccc3)coc12 | active: 2.51 µM | 
Cc1ccc(N2CCN(C(=S)c3ccc(N(C)C)cc3)CC2)cc1 | inconclusive [inhibitor, single point] | 
CCN1CCN(C(CNC(=O)c2ccc3c(c2)OCO3)c2cccnc2)CC1 (configuration not stated) |  | inactive: 9.87%
Nc1nc2c(c(=O)[nH]1)N=C(CNc1ccc(C(=O)NC(CCC(=O)O)C(=O)O)cc1)CN2 (configuration not stated) |  | inactive: -19.6% [at 25.6 µM]
O=C(CSc1nnc(-c2ccc(OC(F)F)cc2)o1)NC(=O)NCc1ccco1 | inconclusive [inhibitor, single point] | 
CN(C)CCSc1nc(N)c2c3c(sc2n1)COC(C)(C)C3 | inconclusive [inhibitor, partial curve] | 
CCC(=O)N(Cc1cc(=O)[nH]c2ccccc12)c1cccc(C)c1 | inconclusive [inhibitor, partial curve] | 
CN(C)c1ccc(-c2nc(N(C)C)c3ccccc3n2)cc1 |  | inactive: -4.42%
Cc1cc2nc(-c3ccco3)cc(C(F)(F)F)n2n1 | inconclusive [inhibitor, single point] | 
CN1CCN(c2ncncc2-c2ccoc2)CC1 | active: 31.6 µM | 
CCOC(=O)C(NC(=O)CC)(Nc1sc2c(c1C(=O)OC)CCN(C)C2)C(F)(F)F (configuration not stated) | inconclusive [inhibitor, partial curve] | 
CC(C)(C)c1ccccc1OCC(=O)Nc1ncn[nH]1 |  | inactive: 38.9%
COc1cccc(C(=O)Nc2c3c(nn2-c2ccccc2C)CS(=O)C3)c1OC (configuration not stated) |  | inactive: 0.348%
NC(N)=NCCC[C@H](NC(=O)CC1(CC(=O)N2CCN(C3c4ccccc4NC(=O)c4ccccc43)CC2)CCCC1)C(=O)NCCn1c(=O)n(-c2ccccc2)n(-c2ccccc2)c1=O (some centres not stated) | active: 20 µM | 
Cc1ccc(C(=O)COC(=O)c2cnccn2)cc1 |  | inactive: -28.6%
Nc1c(C(=O)NCCN2CCOCC2)c2nc3ccccc3nc2n1CCc1ccccc1 | inconclusive [inhibitor, partial curve] | 
COCCn1c(=O)c(-c2ccc(Cl)cc2)nc2cnc(N3CCNCC3)nc21 | inconclusive [inhibitor, single point] | 
Cc1cc(C(=O)CN2C(=O)c3ccccc3S2(=O)=O)c(C)n1-c1ccccc1 |  | inactive: -5.03%

SMILES | Potency | activity change, negative = inhibition
O=C1C2C3C=CC(C3)C2C(=O)N1CNc1ccc(O)cc1 (configuration not stated) | inconclusive [inhibitor, partial curve] | 
Cc1ccc(C)c(NC(=O)CCN2CCOCC2)c1 |  | inactive: 4.73%
CCCCS(=O)(=O)NC1=NCN(C2CCN(Cc3ccccc3)CC2)CN1 | inconclusive [inhibitor, single point] | 
COc1ccc(CCN(C)CCCOc2ccc(S(=O)(=O)c3[nH]c4ccccc4c3C(C)C)cc2)cc1OC |  | inactive: -1.38% [at 25.6 µM]
COc1cc(CN2CCN(C(=O)CC(C)C)CC2)cc(OC)c1OC | inconclusive [inhibitor, single point] | 
O=S(=O)(c1ccccc1)c1nc(-c2ccco2)oc1N1CCOCC1 | inconclusive [inhibitor, single point] | 
CCn1nc(NC(=O)c2cccnc2)c2cc3cccc(C)c3nc21 |  | inactive: 5.24%
OCC1OC([S-])[C@H](O)C(O)C1O.[Au+] (some centres not stated) | inconclusive [inhibitor, partial curve] | 
O=C(/C=C/Nc1ccc(F)c(Cl)c1)c1ccco1 | active: 25.1 µM | 
CCCCOC(=O)CSc1nc2c(cc1C#N)C(=O)CC(C)(C)C2 |  | inactive: -27%
COc1ccc2noc3c2c1C(=O)c1ccccc1-3 | inconclusive [inhibitor, full curve] | 
O=c1[nH]ncc2ccccc12 |  | inactive: -4.29%
Cc1nc(NCc2ccccc2)c2nc(-c3ccccc3)n(CC(C)(C)CN(C)C)c2n1 | active: 3.98 µM | 
Cc1cc(C)c2nc(N3CCCC3)c(C#N)cc2c1 | active: 2 µM | 
Cc1ccc(OCc2nnc(SCC(=O)CC(=O)Nc3ccccc3)o2)cc1 | inconclusive [inhibitor, partial curve] | 
Cc1onc(-c2c(F)cccc2Cl)c1C(=O)NCc1ccco1 | inconclusive [inhibitor, single point] | 
COc1ccc(Cn2c(C)ccc2C)cc1 | inconclusive [inhibitor, partial curve] | 
CCOc1ccccc1C1C(C#N)=C(N)SC(N)=C1C#N | inconclusive [inhibitor, partial curve] | 
COCC(=O)N1CCC2(CCCN(Cc3ccccc3OC)C2)CC1 |  | inactive: 8.27%
CCNc1ncc2nc(-c3cn(C)c4ccccc34)c(=O)n(C)c2n1 | inconclusive [inhibitor, single point] | 
CC(/C=C/C=C(C)/C=C/C(=O)O)=C\C=C\C=C(C)\C=C\C=C(C)\C=C\C(=O)O | inconclusive [inhibitor, partial curve] | 
COc1cc2cc(C(c3nnnn3C3CCCC3)N3CCc4ccccc43)c(=O)[nH]c2cc1OC (configuration not stated) | active: 20 µM | 
Cn1c(C(=O)NCCN2CCOCC2)cc2c(=O)n(C)c3ccccc3c21 | inconclusive [inhibitor, partial curve] | 
O=C1C[C@H]2C(=O)[C@@H]1[C@@H](C(=O)O)[C@H]2C(=O)O |  | inactive: 1.28% [at 11.4 µM]

SMILES | Potency | activity change, negative = inhibition
O=C(c1cc2ccccc2o1)c1cccs1 | inconclusive [inhibitor, single point] | 
Cc1cccc(CNc2cc(-c3ccccc3C)ncn2)c1 | inconclusive [inhibitor, single point] | 
O=C(c1csnn1)N1CCC2(CC1)CCN(c1ncccn1)CC2 |  | inactive: 5.85%
OC[C@H]1NC[C@@H](O)[C@@H](O)[C@H]1O | inconclusive [inhibitor, partial curve, poor fit] | 
Nc1nc(SCc2ccccc2[N+](=O)[O-])c2[nH]cnc2n1 |  | inactive: -5.92% [at 11.4 µM]
CCCc1cc(-c2[nH]ncc2-c2ccc3c(c2)OCCCO3)c(O)cc1O | inconclusive [inhibitor, partial curve] | 
COc1cccc(C2C(C(=O)c3cccs3)=C(O)C(=O)N2CCN(C)C)c1OC (configuration not stated) | inconclusive [inhibitor, single point] | 
CCC1c2ccc(C)n2CCN1C(=O)Nc1ccccc1OC (configuration not stated) | active: 3.16 µM | 
CCOC(=O)C1=C(C)C(c2ccc(OC)cc2OC)NC(=O)N1 (configuration not stated) | inconclusive [inhibitor, single point] | 
NC(=O)c1ccsc1NC(=O)CSc1ccccc1F | inconclusive [inhibitor, single point] | 
O=C(NC1CCCC1)C(c1ccsc1)N(Cc1ccco1)C(=O)Cc1cccs1 (configuration not stated) | active: 0.398 µM | 
COc1cccc(-c2cncnc2NCc2cccnc2)c1 | active: 15.8 µM | 
FC(F)(F)c1cc(CN2CC3(CCNCC3)C2)cc(C(F)(F)F)c1 |  | inactive: 2.74%
CCOC(=O)N1CCN(c2nc(-c3ccco3)cc(C(F)(F)F)n2)CC1 | inconclusive [inhibitor, partial curve] | 
S=C(c1ccc(-c2ccc(Cl)c(Cl)c2)o1)N1CCOCC1 | inconclusive [inhibitor, partial curve] | 
O=C(NCc1ccco1)Nc1ccc2nsnc2c1 | inconclusive [inhibitor, single point] | 
O=C(/C=N/O)NCC1CCNCC1 | inconclusive [inhibitor, single point] | 
COc1cc2c(cc1NC(=O)CC1SC(N3CCCC3)=NC1=O)oc1ccccc12 (configuration not stated) |  | inactive: -16.9%
c1ccc(CSc2ncn(-c3ccccc3)n2)cc1 | inconclusive [inhibitor, partial curve] | 
c1ccc(-c2nn3c(Cn4nnc5ccccc54)nnc3s2)nc1 | inconclusive [inhibitor, partial curve] | 
CN1CCN(C(=O)c2nc3ccc(Cl)cc3[nH]2)CC1 | inconclusive [inhibitor, partial curve] | 
CN(C)c1ncc2nc(-c3cn(C)c4ccccc34)c(=O)n(C[C@H]3CCCO3)c2n1 |  | inactive: 1.05%
C[C@H]1[C@H](O)[C@@H](C)C=CC=CC=CC=CC=CC=CC=C[C@H](O[C@@H]2O[C@@H](C)[C@H](O)[C@@H](N)[C@@H]2O)C[C@@H]2O[C@](O)(C[C@@H](O)C[C@@H](O)[C@@H](O)CC[C@@H](O)C[C@@H](O)CC(=O)O[C@H]1C)C[C@H](O)[C@H]2C(=O)O | active: 2 µM | 
COc1ccccc1N1CSC2=C(C#N)C(c3ccc(SC)cc3)CC(=O)N2C1 (configuration not stated) | active: 3.16 µM | 
